From patent US9873709B2 (priority 2013, dated 2018)

target: isolated recombinant JAK1 kinase domain (Homo sapiens (Human), UniProt P23458); details: read-out: JAK1 Ki; isolated recombinant JAK1 kinase domain, 25 μM ATP
Sequence (P23458 875-1153): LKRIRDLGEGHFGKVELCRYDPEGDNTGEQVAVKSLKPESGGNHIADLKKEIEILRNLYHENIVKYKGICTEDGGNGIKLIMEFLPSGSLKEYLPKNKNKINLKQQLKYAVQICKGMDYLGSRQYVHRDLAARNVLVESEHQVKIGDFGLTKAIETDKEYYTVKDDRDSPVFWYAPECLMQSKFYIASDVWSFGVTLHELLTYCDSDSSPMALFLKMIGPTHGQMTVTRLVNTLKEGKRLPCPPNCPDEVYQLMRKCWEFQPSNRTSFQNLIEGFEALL

| SMILES | Ki |
| --- | --- |
| CCOC(=O)N1CC=C(c2cccn3nc(Nc4ccc(C(=O)N5CCC(Cc6ccncc6)C5)cc4)nc23)CC1 (stereo not drawn) [Example 2-424, ethyl 4-[2-[4-[3-(4-pyridylmethyl)pyrrolidine-1-carbonyl]anilino]-[1,2,4]triazolo[1,5-a]pyridin-8-yl]-3,6-dihydro-2H-pyridine-1-carboxylate] | 2.25 nM |
| CCOC(=O)N1CC=C(c2cccn3nc(Nc4ccc(C(=O)NCC5CCNCC5)cc4)nc23)CC1 [Example 2-425, ethyl 4-[2-[4-(4-piperidylmethylcarbamoyl)anilino]-[1,2,4]triazolo[1,5-a]pyridin-8-yl]-3,6-dihydro-2H-pyridine-1-carboxylate] | 0.85 nM |
| CCOC(=O)N1CC=C(c2cccn3nc(Nc4ccc(C(=O)N5CCC(Cc6cccnc6)C5)cc4)nc23)CC1 (stereo not drawn) [Example 2-426, ethyl 4-[2-[4-[3-(3-pyridylmethyl)pyrrolidine-1-carbonyl]anilino]-[1,2,4]triazolo[1,5-a]pyridin-8-yl]-3,6-dihydro-2H-pyridine-1-carboxylate] | 1.89 nM |
| CCOC(=O)N1CC=C(c2cccn3nc(Nc4ccc(C(=O)NCCC5CCCCN5)cc4)nc23)CC1 (stereo not drawn) [Example 2-428, ethyl 4-[2-[4-[2-(2-piperidyl)ethylcarbamoyl]anilino]-[1,2,4]triazolo[1,5-a]pyridin-8-yl]-3,6-dihydro-2H-pyridine-1-carboxylate] | 1.68 nM |
| CCOC(=O)N1CC=C(c2cccn3nc(Nc4ccc(C(=O)N5CCCN(c6ccncc6)CC5)cc4)nc23)CC1 [Example 2-429, ethyl 4-[2-[4-[4-(4-pyridyl)-1,4-diazepane-1-carbonyl]anilino]-[1,2,4]triazolo[1,5-a]pyridin-8-yl]-3,6-dihydro-2H-pyridine-1-carboxylate] | 1.26 nM |
| CCOC(=O)N1CC=C(c2cccn3nc(Nc4ccc(C(=O)N5CCN6CCCCC6C5)cc4)nc23)CC1 (stereo not drawn) [Example 2-430, ethyl 4-[2-[4-(1,3,4,6,7,8,9,9a-octahydropyrido[1,2-a]pyrazine-2-carbonyl)anilino]-[1,2,4]triazolo[1,5-a]pyridin-8-yl]-3,6-dihydro-2H-pyridine-1-carboxylate] | 4.79 nM |
| CCOC(=O)N1CC=C(c2cccn3nc(Nc4ccc(C(=O)N5CCN(C)C(C(=O)N(C)C)C5)cc4)nc23)CC1 (stereo not drawn) [Example 2-431, ethyl 4-[2-[4-[3-(dimethylcarbamoyl)-4-methyl-piperazine-1-carbonyl]anilino]-[1,2,4]triazolo[1,5-a]pyridin-8-yl]-3,6-dihydro-2H-pyridine-1-carboxylate] | 6.79 nM |
| CCOC(=O)N1CC=C(c2cccn3nc(Nc4ccc(C(=O)N5CC6(CN(C(C)=O)C6)C5)cc4)nc23)CC1 [Example 2-432, ethyl 4-[2-[4-(6-acetyl-2,6-diazaspiro[3.3]heptane-2-carbonyl)anilino]-[1,2,4]triazolo[1,5-a]pyridin-8-yl]-3,6-dihydro-2H-pyridine-1-carboxylate] | 1.64 nM |
| CCOC(=O)N1CC=C(c2cccn3nc(Nc4ccc(C(=O)NC5CCN(C)C5)cc4)nc23)CC1 (stereo not drawn) [Example 2-433, ethyl 4-[2-[4-[(1-methylpyrrolidin-3-yl)carbamoyl]anilino]-[1,2,4]triazolo[1,5-a]pyridin-8-yl]-3,6-dihydro-2H-pyridine-1-carboxylate] | 1.21 nM |
| CCOC(=O)N1CC=C(c2cccn3nc(Nc4ccc(C(=O)N[C@H]5[C@@H]6CNC[C@@H]65)cc4)nc23)CC1 [Example 2-434, ethyl 4-[2-[4-[[(1S,5R)-3-azabicyclo[3.10]hexan-6-yl]carbamoyl]anilino]-[1,2,4]triazolo[1,5-a]pyridin-8-yl]-3,6-dihydro-2H-pyridine-1-carboxylate] | 1.55 nM |
| CCOC(=O)N1CC=C(c2cccn3nc(Nc4ccc(C(=O)N5C[C@H]6CNC[C@H]6C5)cc4)nc23)CC1 [Example 2-435, ethyl 4-[2-[4-[(3aR,6aS)-2,3,3a,4,6,6a-hexahydro-1H-pyrrolo[3,4-c]pyrrole-5-carbonyl]anilino]-[1,2,4]triazolo[1,5-a]pyridin-8-yl]-3,6-dihydro-2H-pyridine-1-carboxylate] | 2.33 nM |
| CCOC(=O)N1CC=C(c2cccn3nc(Nc4ccc(C(=O)N5CCCC56CCCNC6)cc4)nc23)CC1 (stereo not drawn) [Example 2-436, ethyl 4-[2-[4-(1,9-diazaspiro[4.5]decane-1-carbonyl)anilino]-[1,2,4]triazolo[1,5-a]pyridin-8-yl]-3,6-dihydro-2H-pyridine-1-carboxylate] | 2.99 nM |
| CCOC(=O)N1CC=C(c2cccn3nc(Nc4ccc(C(=O)N5CC6(CCCCN6)C5)cc4)nc23)CC1 [Example 2-437, ethyl 4-[2-[4-(2,5-diazaspiro[3.5]nonane-2-carbonyl)anilino]-[1,2,4]triazolo[1,5-a]pyridin-8-yl]-3,6-dihydro-2H-pyridine-1-carboxylate] | 1.79 nM |
| CCOC(=O)N1CC=C(c2cccn3nc(Nc4ccc(C(=O)N(C)C5CCCNC5)cc4)nc23)CC1 (stereo not drawn) [Example 2-438, ethyl 4-[2-[4-[methyl(3-piperidyl)carbamoyl]anilino]-[1,2,4]triazolo[1,5-a]pyridin-8-yl]-3,6-dihydro-2H-pyridine-1-carboxylate] | 4.03 nM |
| CCOC(=O)N1CC=C(c2cccn3nc(Nc4ccc(C(=O)N5CCCC6(CCNC6)C5)cc4)nc23)CC1 (stereo not drawn) [Example 2-439, ethyl 4-[2-[4-(2,7-diazaspiro[4.5]decane-7-carbonyl)anilino]-[1,2,4]triazolo[1,5-a]pyridin-8-yl]-3,6-dihydro-2H-pyridine-1-carboxylate] | 2.89 nM |
| O=C(CCC(F)(F)F)N1CC=C(c2cccn3nc(Nc4ccc(C(=O)N5CCCC56CCNC6)cc4)nc23)CC1 (stereo not drawn) [Example 2-440, 1-[4-[2-[4-(1,7-diazaspiro[4.4]nonane-1-carbonyl)anilino]-[1,2,4]triazolo[1,5-a]pyridin-8-yl]-3,6-dihydro-2H-pyridin-1-yl]-4,4,4-trifluoro-butan-1-one] | 0.47 nM |
| CN(CCN)C(=O)c1ccc(Nc2nc3c(C4=CCN(C(=O)CCC(F)(F)F)CC4)cccn3n2)cc1 [Example 2-441, N-(2-aminoethyl)-N-methyl-4-[[8-[1-(4,4,4-trifluorobutanoyl)-3,6-dihydro-2H-pyridin-4-yl]-[1,2,4]triazolo[1,5-a]pyridin-2-yl]amino]benzamide] | 0.53 nM |
| O=C(CCC(F)(F)F)N1CC=C(c2cccn3nc(Nc4ccc(C(=O)N5CCCC6(CCCNC6)C5)cc4)nc23)CC1 (stereo not drawn) [Example 2-443, 1-[4-[2-[4-(2,8-diazaspiro[5.5]undecane-2-carbonyl)anilino]-[1,2,4]triazolo[1,5-a]pyridin-8-yl]-3,6-dihydro-2H-pyridin-1-yl]-4,4,4-trifluoro-butan-1-one] | 1.2 nM |
| O=C(NC1CCNCC1)c1ccc(Nc2nc3c(C4=CCN(C(=O)CCC(F)(F)F)CC4)cccn3n2)cc1 [Example 2-445, N-(4-piperidyl)-4-[[8-[1-(4,4,4-trifluorobutanoyl)-3,6-dihydro-2H-pyridin-4-yl]-[1,2,4]triazolo[1,5-a]pyridin-2-yl]amino]benzamide] | 1.27 nM |
| NCC1CCN(C(=O)c2ccc(Nc3nc4c(C5=CCN(C(=O)CCC(F)(F)F)CC5)cccn4n3)cc2)CC1 [Example 2-446, 1-[4-[2-[4-[4-(aminomethyl)piperidine-1-carbonyl]anilino]-[1,2,4]triazolo[1,5-a]pyridin-8-yl]-3,6-dihydro-2H-pyridin-1-yl]-4,4,4-trifluoro-butan-1-one] | 0.4 nM |
| NCC1CCN(C(=O)c2ccc(Nc3nc4c(C5=CCN(C(=O)CCC(F)(F)F)CC5)cccn4n3)cc2)C1 (stereo not drawn) [Example 2-447, 1-[4-[2-[4-[3-(aminomethyl)pyrrolidine-1-carbonyl]anilino]-[1,2,4]triazolo[1,5-a]pyridin-8-yl]-3,6-dihydro-2H-pyridin-1-yl]-4,4,4-trifluoro-butan-1-one] | 0.9 nM |
| O=C(CCC(F)(F)F)N1CC=C(c2cccn3nc(Nc4ccc(C(=O)N5CCO[C@@H]6CNC[C@H]65)cc4)nc23)CC1 [Example 2-448, 1-[4-[2-[4-[(4aR,7aR)-3,4a,5,6,7,7a-hexahydro-2H-pyrrolo[3,4-b][1,4]oxazine-4-carbonyl]anilino]-[1,2,4]triazolo[1,5-a]pyridin-8-yl]-3,6-dihydro-2H-pyridin-1-yl]-4,4,4-trifluoro-butan-1-one] | 1.03 nM |
| O=C(CCC(F)(F)F)N1CC=C(c2cccn3nc(Nc4ccc(C(=O)N5C[C@H]6CN[C@H]6C5)cc4)nc23)CC1 [Example 2-449, 1-[4-[2-[4-[(1R,5R)-3,6-diazabicyclo[3.2.0]heptane-3-carbonyl]anilino]-[1,2,4]triazolo[1,5-a]pyridin-8-yl]-3,6-dihydro-2H-pyridin-1-yl]-4,4,4-trifluoro-butan-1-one] | 1.17 nM |
| O=C(CCC(F)(F)F)N1CC=C(c2cccn3nc(Nc4ccc(C(=O)N5CCCCC56CCNCC6)cc4)nc23)CC1 [Example 2-450, 1-[4-[2-[4-(1,9-diazaspiro[5.5]undecane-1-carbonyl)anilino]-[1,2,4]triazolo[1,5-a]pyridin-8-yl]-3,6-dihydro-2H-pyridin-1-yl]-4,4,4-trifluoro-butan-1-one] | 1.77 nM |
| CN(C(=O)c1ccc(Nc2nc3c(C4=CCN(C(=O)CCC(F)(F)F)CC4)cccn3n2)cc1)C1CNC1 [Example 2-451] | 1.46 nM |
| NCC12CC(CN1C(=O)c1ccc(Nc3nc4c(C5=CCN(C(=O)CCC(F)(F)F)CC5)cccn4n3)cc1)C2 [Example 2-452, 1-[4-[2-[4-[4-(aminomethyl)-3-azabicyclo[2.1.1]hexane-3-carbonyl]anilino]-[1,2,4]triazolo[1,5-a]pyridin-8-yl]-3,6-dihydro-2H-pyridin-1-yl]-4,4,4-trifluoro-butan-1-one] | 0.97 nM |
| O=C(CCC(F)(F)F)N1CC=C(c2cccn3nc(Nc4ccc(C(=O)N5CCOC6CCNCC65)cc4)nc23)CC1 (stereo not drawn) [Example 2-453, 1-[4-[2-[4-(2,3,4a,5,6,7,8,8a-octahydropyrido[4,3-b][1,4]oxazine-4-carbonyl)anilino]-[1,2,4]triazolo[1,5-a]pyridin-8-yl]-3,6-dihydro-2H-pyridin-1-yl]-4,4,4-trifluoro-butan-1one] | 1.23 nM |
